This passage reports binding signal results from paper PMC7819943, “Rice protein-binding microarrays: a tool to detect cis-acting elements near promoter regions in rice”.

The other results are listed elsewhere or left out.

In the experiment the target is T1, OsWOX13 (Oryza sativa, UniProt Q5QMM3 1-267).
T1 sequence: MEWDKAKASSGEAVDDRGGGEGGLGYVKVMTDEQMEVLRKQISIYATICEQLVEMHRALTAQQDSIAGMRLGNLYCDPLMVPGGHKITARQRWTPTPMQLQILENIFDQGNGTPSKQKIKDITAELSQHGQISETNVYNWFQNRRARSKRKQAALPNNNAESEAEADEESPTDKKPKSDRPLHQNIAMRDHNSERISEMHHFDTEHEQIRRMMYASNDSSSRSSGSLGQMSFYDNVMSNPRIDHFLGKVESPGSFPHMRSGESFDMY
The experiment is described as follows: protein-binding microarray (RPBM); PBS, 2% BSA, 51.3 ng/ul salmon testes DNA, 50 uM zinc acetate, 200 nM TF, 25 C, 1 h; high values mean tight binding. The following applies: protein: recombinant; tags: N-terminal polyhistidine and DsRed monomer fusion (pET32a); label: CyDye5-dUTP incorporated in the synthesized complementary strand; 3' TTTTT single-stranded linker to array surface; dsDNA, one strand shown. In a few lines: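 An Axon 4000B scanner gave the binding signal as per-feature fluorescence intensity in arbitrary units. This followed washing of a custom Agilent array that had been incubated for 1 h at 25 °C with 200 nM protein in PBS, 2% BSA, salmon testes DNA and 50 µM zinc acetate. The proteins were transcription factors fused at the N-terminus to polyhistidine and DsRed, expressed in E. coli BL21-CodonPlus and purified on Ni–NTA.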
“AAAAGTAATTAAGTTGTCCACCTGACCAATCTGAACTTGCCGGAGTCACCTAGTGCAG”: the binding signal is 3680 fluorescence intensity (a.u.).
Under “TTTGACTTTGACAGGGCACAAACAATTAATCTGAATGTTTCGGAGTCACCTAGTGCAG” stands 10500 fluorescence intensity (a.u.).
With “TTAGATTGGGGTGCGACACTTAAGGATTATAAAATCACAGCGGAGTCACCTAGTGCAG”, the binding signal was 22600 fluorescence intensity (a.u.).
“TGGAATAATTAAAACTCAATTAATCACAGGTTATTATAACCGGAGTCACCTAGTGCAG”: the binding signal was 5980 fluorescence intensity (a.u.).
Consider “CCAAGTTTCCATCAATCAATCAATGAGATTTAATTTATGCCGGAGTCACCTAGTGCAG”, for which the binding signal was 26500 fluorescence intensity (a.u.).
“AATTTAATCGCGATAGATTGGTTTAACTCTAATCCGGGAGCGGAGTCACCTAGTGCAG”: the binding signal is 36700 fluorescence intensity (a.u.).
The figure for “AGAAGAAAATCACAACGTTGACTGAAGAGGGAAACACCAACGGAGTCACCTAGTGCAG” is 3590 fluorescence intensity (a.u.); for “TCCAAACTGTCAATAATGTTCTGGGTCGCCAAGAACATCACGGAGTCACCTAGTGCAG” it is 18500 fluorescence intensity (a.u.); for “TCCAAAATGGCTACATGATTGACAAGCTACATAGTAACAACGGAGTCACCTAGTGCAG” it is 27900 fluorescence intensity (a.u.).
Take “ACTAAACTCTGTTAATTTCAACATCACTACCAAACAAGAACGGAGTCACCTAGTGCAG”: the binding signal is 11600 fluorescence intensity (a.u.).
For “CCTGTTGATTGGATATCTGGAACCTGAAATCCTGAATACGCGGAGTCACCTAGTGCAG”, the binding signal was 55800 fluorescence intensity (a.u.).
The figure for “CTCGATTTTAACAGATTAATTAAACAGCGCTATGCAGACACGGAGTCACCTAGTGCAG” is 29100 fluorescence intensity (a.u.); for “ATGTATTAGAATGATTATTTGATCTCAAGTTGTACATCAGCGGAGTCACCTAGTGCAG” it is 5680 fluorescence intensity (a.u.).
The figure for “AATTTATTAAGCCTAATTAACTTGTCATTAGTAAATGTTTCGGAGTCACCTAGTGCAG” is 9770 fluorescence intensity (a.u.); for “AAGTAACTGCTCATTACTCAATCAGTCAAAGTTGAGCAACCGGAGTCACCTAGTGCAG” it is 22900 fluorescence intensity (a.u.); for “ACGATGATGCAATCATCATAAATATATTCCAAGCATTAGACGGAGTCACCTAGTGCAG” it is 4320 fluorescence intensity (a.u.).
“TTGTTGATTATGTTTAGCCATGTGGCTTTAAAGTGGGGTCCGGAGTCACCTAGTGCAG”: the binding signal is 32100 fluorescence intensity (a.u.).
On to “AATTGGCTATAGATGATTTGTAACTAGTAGTTGGCTATACCGGAGTCACCTAGTGCAG”, for which the binding signal was 4320 fluorescence intensity (a.u.).
Take “TGTGTGATACAATCATCTCTATAATTGCCTCTAGGGCATACGGAGTCACCTAGTGCAG”: the binding signal is 10800 fluorescence intensity (a.u.).
With “GGTACGTTAATTAATTACTCGCAAATAAATATCTAAGTAGCGGAGTCACCTAGTGCAG”, the binding signal is 45200 fluorescence intensity (a.u.).
With “AAAATATTAGTAAATTAACAATATTACAAAGTATTGTAGGCGGAGTCACCTAGTGCAG”, the binding signal was 3700 fluorescence intensity (a.u.).
The figure for “TTATAATTATTTGTGTTGCAATGTATGTTTTGTTTATATACGGAGTCACCTAGTGCAG” is 9980 fluorescence intensity (a.u.); for “GCAACTGATAGACTAACTTGTCCGGTCCTGTTTTGGAATCCGGAGTCACCTAGTGCAG” it is 20700 fluorescence intensity (a.u.); for “CTTGACATAAAATACAACTCATCCTTCAAAATATCGTCAACGGAGTCACCTAGTGCAG” it is 4010 fluorescence intensity (a.u.).
With “GAGCATGTAATCATATTGTCAAATCATTGACCCCTTGCTTCGGAGTCACCTAGTGCAG”, the binding signal was 6030 fluorescence intensity (a.u.).
Under “TCTTGTGATTGTATTTTGATAAATCTGAAGAGCATTATGACGGAGTCACCTAGTGCAG” stands 22000 fluorescence intensity (a.u.).
With “TGTCTAGATTTATTAAAATCAATATGAATGTGGAAAATGTCGGAGTCACCTAGTGCAG”, the binding signal was 6660 fluorescence intensity (a.u.).
“CTTGACTTAACACGTCACCTTATCATGTCACATGTAAACACGGAGTCACCTAGTGCAG”: the binding signal was 4510 fluorescence intensity (a.u.).
In the case of “CTGAAATTGAAGGGATGGGCTGGAGGCTGGAGAGACATCACGGAGTCACCTAGTGCAG”, the binding signal is 18400 fluorescence intensity (a.u.).
For “GAAATGAATAGGTTGACAGAGGCATGAAATGATGCATGACCGGAGTCACCTAGTGCAG”, the binding signal is 5000 fluorescence intensity (a.u.).
Under “AACTAATGAAGTGTCTAAACTCTAAACATATGTCACCACCCGGAGTCACCTAGTGCAG” stands 3780 fluorescence intensity (a.u.).
The figure for “TTCAATCCAATTAACGTTGGGCCTCATCGGTTATCCAGAACGGAGTCACCTAGTGCAG” is 6840 fluorescence intensity (a.u.); for “CCAATCAATTTTCATGGAAATAAAATGGATAAGAATCATACGGAGTCACCTAGTGCAG” it is 14300 fluorescence intensity (a.u.); for “GAATGACTGAATCTGATCTGTCAGATTGCCTGATGGTTCTCGGAGTCACCTAGTGCAG” it is 18600 fluorescence intensity (a.u.).
“TTTTGATTTTATTGTCTAGTACCTCTCTTCAACGTATAGCCGGAGTCACCTAGTGCAG”: the binding signal is 13700 fluorescence intensity (a.u.).
Consider “ATGACGATGATGGTGATGGAGTCGGGTACTGGTGATGGTACGGAGTCACCTAGTGCAG”, for which the binding signal was 3730 fluorescence intensity (a.u.).
Consider “TGTATTTACTTTTATATAATTATGATATTATTGCTATAAACGGAGTCACCTAGTGCAG”, for which the binding signal is 3620 fluorescence intensity (a.u.).
Consider “TTAAATTTAAAATTTTGTTTGAATGCTTAGTATGTGCATTCGGAGTCACCTAGTGCAG”, for which the binding signal was 27800 fluorescence intensity (a.u.).
“CCTAGAGCAAACAATTTGATTATCCATGATGAAATAGTGACGGAGTCACCTAGTGCAG”: the binding signal was 3220 fluorescence intensity (a.u.).
In the case of “ATATATATATATATATATTGTGAGGGGATCTAGTGCCTGGCGGAGTCACCTAGTGCAG”, the binding signal was 7110 fluorescence intensity (a.u.).
As for “TATTGATTGACATGGTTAGTGGTATGACATGATTATTTGGCGGAGTCACCTAGTGCAG”, the binding signal was 41400 fluorescence intensity (a.u.).
For the sequence “CGATGACATAACTATCATGTGAGGTCATTTGTAGATTTGGCGGAGTCACCTAGTGCAG”, the binding signal is 12200 fluorescence intensity (a.u.).
